According to PubChem BioAssay AID2675 (National Center for Advancing Translational Sciences (NCATS), 2010):
Among all 280,000 compounds or so, about 100 (0.036%) were called active. The shares of active, inactive and inconclusive entries below differ from those in the screen. The call rests on the fitted dose curve; in most records, active means well fitted inhibition curve with a large enough effect in the signal ratio, with a control signal flat (not every such curve was filed as active); inconclusive means small, poorly fitted or top-dose-only effect, or effect the other way, or a change in a side signal; inactive means no such curve, though single readings can be large or run the other way; the % refers to the signal ratio. Potencies beside an inconclusive call are fits to weak or partial responses and may not hold up. “Side channel” marks fits to a control or component signal instead of the main read-out.

Biological target: Muscleblind-like protein 1 (Homo sapiens) (UniProt Q9NR56)
Sequence of UniProt Q9NR56 (Q9NR56 whole entry, looked up): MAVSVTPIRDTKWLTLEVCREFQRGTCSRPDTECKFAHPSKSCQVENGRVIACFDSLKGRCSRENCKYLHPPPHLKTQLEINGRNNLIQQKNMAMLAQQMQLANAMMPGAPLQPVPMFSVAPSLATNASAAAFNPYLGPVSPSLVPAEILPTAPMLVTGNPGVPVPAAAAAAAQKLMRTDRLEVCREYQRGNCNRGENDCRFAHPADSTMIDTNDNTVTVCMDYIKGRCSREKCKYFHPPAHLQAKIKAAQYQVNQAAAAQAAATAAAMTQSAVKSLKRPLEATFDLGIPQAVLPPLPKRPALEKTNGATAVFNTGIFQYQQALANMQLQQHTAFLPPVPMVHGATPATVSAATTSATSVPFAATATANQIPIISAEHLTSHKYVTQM
Test: qHTS Assay for Inhibitors of MBNL1-poly(CUG) RNA binding
Details: TR-FRET MBNL1-His/biotin-(CUG)12 binding, 665/545 ratio; activity change, negative = inhibition: at 57.5 µM (top of the series)
In short: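 Compounds (final 92 nM to 58 uM) are added to His-tagged MBNL1 and biotin-(CUG)12, then terbium anti-His antibody and streptavidin-XL665 (5 nM final). After 60 min at room temperature, the 665/545 nm ratio is read.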
On the % scale 0 is the no-effect control and ±100 the full control effect; potency means the concentration at half of the fitted maximal effect; tags describe the fitted curve by direction and shape or compound fluorescence and quenching.

| Structure (SMILES) | Potency | activity change, negative = inhibition |
| --- | --- | --- |
| Cc1ccc(NC(=O)c2cnn(C)c2)cc1[N+](=O)[O-] | inconclusive: 17.8 µM [quencher, side channel, partial curve] |  |
| O=[N+]([O-])c1cccc(/C=N/n2c(-c3cccnc3)n[nH]c2=S)c1 | inconclusive: 0.794 µM [quencher, side channel, full curve] |  |
| COc1ccc(-c2cc(=NC(CC(C)C)C(=O)O)c3cc(C)ccc3o2)cc1 (stereo not drawn) | inconclusive: 10 µM [quencher, side channel, partial curve] |  |
| COc1cc2c(cc1OC)CN(C(=O)/C=C/c1cccc([N+](=O)[O-])c1)CC2 | inconclusive: 8.91 µM [quencher, side channel, partial curve] |  |
| CCOc1ccc2nc(NCCNC(=O)Nc3ccccc3)c(C#N)cc2c1 |  | inactive: 20.2% |
| CC(NC(=O)c1ccccc1)C(=O)N/N=C/c1cccc([N+](=O)[O-])c1 (stereo not drawn) | inconclusive: 11.2 µM [quencher, side channel, partial curve] |  |
| CSc1nc(Sc2ccc(Cl)cc2)c2ccccc2n1 |  | inactive: -4.39% |
| Cc1ccc(-c2cc(-c3nnc(SCC(=O)N(C)CCC#N)n3N)c3ccccc3n2)cc1 | inconclusive: 28.2 µM [quencher, side channel, single point] |  |
| CCc1nnc(NC(=O)c2cccc(OC)c2)s1 | inconclusive: 3.55 µM [quencher, side channel, single point] |  |
| O=C(CCn1c2c(c3ccccc31)CCCC2)NNC(=O)c1cccc([N+](=O)[O-])c1 | inconclusive: 3.55 µM [quencher, side channel, partial curve, poor fit] |  |
| CC1CCN(c2cc(N3CCN(C(=O)c4ccc(F)c(F)c4)CC3)c([N+](=O)[O-])cc2F)CC1 | inconclusive: 3.55 µM [quencher, side channel, full curve, poor fit] |  |
| O=C(NCc1cccs1)C1CCN(S(=O)(=O)c2cccc3nsnc23)CC1 | inconclusive: 5.01 µM [quencher, side channel, partial curve] |  |
| O=C(CNC(=O)c1ccc(Br)cc1)N=Nc1c(O)[nH]c2ccc([N+](=O)[O-])cc12 | inconclusive: 11.2 µM [quencher, side channel, partial curve] |  |
| COc1ccc(Cl)cc1/C=C/c1ccc2cccc(O)c2n1 |  | inactive: 3.29% |
| CC1CCCC(C)N1C(=O)Cn1cc(/C=C2/C(=O)Nc3ccccc32)c2ccccc21 (stereo not drawn) | inconclusive: 17.8 µM [quencher, side channel, single point] |  |
| Nc1[nH]nc2ncc3cc4ccccc4nc3c12 | inconclusive: 3.98 µM [quencher, side channel, partial curve] |  |
| COc1ccc(C(=S)NCS(=O)(=O)c2ccc(C)cc2)cc1 | inconclusive: 63.1 µM [inhibitor, single point] |  |
| O=C(NC1CC1)c1ccc(N2CCCCC2)c([N+](=O)[O-])c1 | inconclusive: 14.1 µM [quencher, side channel, partial curve] |  |
| CC(=O)NCCCNc1ccc([N+](=O)[O-])cc1 | inconclusive: 31.6 µM [quencher, side channel, partial curve] |  |

| Structure (SMILES) | Potency | activity change, negative = inhibition |
| --- | --- | --- |
| O=C(c1ccccc1F)N1CCN(c2ccc([N+](=O)[O-])c3ncccc23)CC1 | inconclusive: 2.82 µM [quencher, side channel, partial curve] |  |
| CCOc1ccc(N2Nc3n[nH]c(N)c3N2)cc1 | inconclusive: 31.6 µM [quencher, side channel, partial curve] |  |
| CCOC(=O)C1CCCN(c2nc3ccccc3nc2C(C#N)C(=O)OCCOC)C1 (stereo not drawn) | inconclusive: 28.2 µM [quencher, side channel, partial curve] |  |
| COc1ccc(/C=C(\C#N)C(=O)Nc2cccnc2)cc1 |  | inactive: 18.1% |
| COc1ccccc1NC(=O)Cn1nnc(C(=O)Nc2ccccc2)c1N | inconclusive: 7.08 µM [quencher, side channel, single point] |  |
| O=C(C1CC1)N1CCc2cc(Br)cc(S(=O)(=O)N3CCN(c4ccccn4)CC3)c21 |  | inactive: -8% |
| COC(=O)c1ccccc1N=Nc1c(N)[nH][nH]c1=O | inconclusive: 11.2 µM [quencher, side channel, partial curve] |  |
| CN1C=CC(=CC=C2C=CC(=O)C=C2)C=C1 | inconclusive: 14.1 µM [quencher, side channel, partial curve] |  |
| Fc1ccc(-c2ccc(/C=N\n3cnnc3)o2)cc1Cl | inconclusive: 14.1 µM [quencher, side channel, partial curve] |  |
| Nc1ccc(C(=O)OCc2nc3ccccc3s2)cc1 |  | inactive: -1.24% |
| CCN1C(=O)c2cccc3c(S(=O)(=O)Nc4ccccc4)ccc1c23 | inconclusive: 11.2 µM [quencher, side channel, partial curve] |  |
| Cc1cc(-c2ccccc2)nc(-c2ccccc2)c1C | inconclusive: 14.1 µM [quencher, side channel, partial curve] |  |
| S=c1[nH]nc(-c2cccnc2)n1C1CCCCC1 |  | inactive: -5.3% |
| COc1ccc(C2=NS(=O)(=O)N(C)C(C(=O)NCc3cccs3)=C2)cc1OC | inconclusive: 15.8 µM [quencher, side channel, partial curve] |  |
| COc1ccc(N2CCN(C(=O)NC3CCCCC3)CC2)cc1 | inconclusive: 39.8 µM [inhibitor, single point] |  |
| Cc1[nH]c2ccccc2c(=O)c1CN(C)Cc1ccccc1 | inconclusive: 79.4 µM [inhibitor, single point] |  |
| CCOC(=O)COn1c(=O)c(-c2ccc(F)cc2)[n+]([O-])c2ccccc21 | inconclusive: 5.01 µM [quencher, side channel, full curve, poor fit] |  |
| O=C(O)c1ccc(-n2cccc2/C=C2/NC(=O)N(c3cccc(Cl)c3)C2=O)cc1 | inconclusive: 22.4 µM [quencher, side channel, partial curve] |  |
| CC(=O)OCC1=C(C(=O)O)N2C(=O)[C@@H](NC(=O)Cc3cccs3)[C@H]2SC1 | inconclusive: 2.82 µM [inhibitor, full curve, poor fit] |  |
